From PubChem BioAssay AID624296 (National Center for Advancing Translational Sciences (NCATS), 2012)
Screen size: about 350,000 compounds; about 9,900 (2.8%) were called active. Inconclusive results, whose numbers are uncertain, are shown with a selection of clear calls. Calls come from the whole dose curve; as a rule, active = well fitted activation curve with a large enough effect; inconclusive = small, poorly fitted or top-dose-only effect; inactive = no such curve, though single readings can be large or run the other way. No potency is given beside an inconclusive call; the fits are too rough.

test: A quantitative high throughput screen for small molecules that induce DNA re-replication in MCF 10a normal breast cells.; note: nearly all actives have a fitted effect of over 50% in size; for activity, positive = re-replication: % of control where 0% means no effect; conditions: MCF 10A DNA re-replication, Hoechst nuclear intensity, 48 h; activity, positive = re-replication: at 46.1 µM (top of the series)
Potency is the fitted concentration of half-maximal effect; tags give direction and shape of the fitted curve.

Compound	activity, positive = re-replication	Potency
CCCS(=O)(=O)Nc1ccc(Nc2c3ccccc3nc3ccccc23)c(OC)c1	inactive: 21%	
CCCCC(=O)NS(=O)(=O)c1ccc(N=NN2CCOCC2)cc1	inactive: -0.525%	
CCOC(=O)c1nnn(-c2nonc2N)c1CNc1ccccc1		inconclusive [activator, partial curve, poor fit]
CCC(C)Sc1cc(-c2nc3cc(C)ccn3c2NC2CCCCC2)ccc1OC (configuration not stated)		inconclusive [activator, single point]
Cc1c(Cl)cccc1NC(=S)N=Nc1c(O)n(CN2CCOCC2)c2ccccc12	inactive: 7.84%	
CCNC(=S)N(Cc1cc2cccc(C)c2[nH]c1=O)C1CCCC1	inactive: 1.42%	
COc1ccccc1CCN1CCCC(CN(C)C(=O)CCC(N)=O)C1 (configuration not stated)		inconclusive [activator, full curve, poor fit]
COc1nc(NCCN2CCOCC2)nc(Nc2ccc([N+](=O)[O-])cc2)n1		inconclusive [activator, partial curve, poor fit]
CC1=CC(=O)C(C(C)C)=C/C1=N/OS(=O)(=O)c1ccccc1		active: 2.91 µM
Cc1cccc(C(=O)NC(=S)Nc2ccc(S(=O)(=O)N(C)c3ccccc3)cc2)c1		inconclusive [activator, single point]
CC(C)CCN(C(=O)Cc1ccc(Cl)c(Cl)c1)c1c(N)n(Cc2ccccc2)c(=O)[nH]c1=O		inconclusive [activator, partial curve, poor fit]
COCCCNC(=O)c1cn(CC(C)C)c(=O)c2c1c1ccccc1n2C		inconclusive [activator, single point]
N#Cc1c(-c2ccccc2Cl)noc1/C=C/Nc1ccc(C(=O)O)cc1		inconclusive [activator, single point]
CCc1ccc(NC2=CC(=O)C(=O)c3ccccc32)cc1		active: 9.2 µM
O=C(Nc1nc2c(s1)CCCC2)c1ccc2ncsc2c1		inconclusive [activator, single point]
O=C(CSc1nc2ccccc2c(=O)n1CCCN1CCOCC1)c1c[nH]c2ccccc12		inconclusive [activator, single point]
Cc1oc2c(c1C(=O)N1CCOCC1)C(=O)c1ccccc1C2=O		active: 16.4 µM
C=CCn1c(SCC(=O)NCC2CCCO2)nnc1-c1ccccc1 (configuration not stated)		inconclusive [activator, partial curve, poor fit]
COc1ccc(CCNc2oc(COc3ccc(Br)cc3)nc2C#N)cc1OC		inconclusive [activator, single point]
C/C(=N/OC(=O)c1ccc(Br)cc1)c1ccc(C)cc1		inconclusive [activator, single point]
CCCNS(=O)(=O)c1ccc(CCC(=O)Nc2ccc3c(c2)OCCO3)cc1	inactive: -23.5%	

Compound	activity, positive = re-replication	Potency
O=C(NCC(=O)N1CCN(c2ncc(C(F)(F)F)cc2Cl)CC1)c1ccc(Br)o1		inconclusive [activator, single point]
CCN(CC)c1ccc(NC(=O)c2cnccn2)cc1S(=O)(=O)Nc1ccc(OC)cc1		inconclusive [activator, partial curve, poor fit]
Cn1c(N)c(C(=O)COC(=O)c2ccc3c(c2)OCCO3)c(=O)n(C)c1=O	inactive: 4.49%	
CC(=O)N1CCN(c2ccc(Nc3ncnc4c3oc3ccccc34)cc2)CC1		inconclusive [activator, partial curve, poor fit]
O=C(C1=C(O)C(=O)N(CCc2ccccc2)C1c1cccs1)c1ccco1 (configuration not stated)	inactive: -1.97%	
CCN(C(=O)COC(=O)c1ccccc1Cc1ccccc1)c1c(N)n(Cc2ccccc2)c(=O)[nH]c1=O		inconclusive [activator, single point]
Cc1cc(C)nc(SCC(=O)Nc2ncc(Cc3ccc(Cl)c(Cl)c3)s2)n1		inconclusive [activator, partial curve, poor fit]
CCC[C@@H](CN[C@@H](CNC)[C@H](C)CC)NCC1CCC(C(C)(C)C)CC1 (some centres not stated)		inconclusive [activator, single point]
COc1ccc2nc(-c3ccccc3)nc(SC)c2c1		inconclusive [activator, single point]
O=C(CN(Cc1ccccc1)C(=O)CCl)c1cccc(Br)c1		inconclusive [activator, single point]
CCOC(=O)C1(CCOc2ccccc2)CCN(Cc2cc(OC)c3c(c2)OCO3)CC1		inconclusive [activator, partial curve]
O=C(CSc1nc(-c2ccccc2)c(-c2ccccc2)[nH]1)Nc1ccc2c(c1)OCO2		inconclusive [activator, single point]
O=C(CCOc1ccccc1)Nc1cccc(S(=O)(=O)Nc2ccccc2Cl)c1		inconclusive [activator, single point]
CCCCCC(=O)Nc1ccc2ccccc2c1		inconclusive [activator, partial curve, poor fit]
COc1ccc(C(=O)Nc2sc(C)c(-c3ccccc3)c2C#N)cc1OC		inconclusive [activator, single point]
Cc1ccc(NC(=O)CSc2ncnc3ccccc23)cc1S(=O)(=O)N1CCCCC1		inconclusive [activator, partial curve]
COc1ccc(C(=O)Cn2nc(CNc3ccc(Br)cc3)[n+]3c2CCCCC3)cc1		inconclusive [activator, single point]
O=C(N/N=C\c1ccc(Cl)s1)C1COc2ccccc2O1 (configuration not stated)		inconclusive [activator, single point]
CCN(CC)Cc1cc(CCNC(=O)c2ccc(Cl)cc2)ccc1O	inactive: 18.1%	
Cc1cc(/C=C(\C#N)C(=O)NCC2CCCO2)c(C)n1-c1ccc(Cl)cc1 (configuration not stated)	inactive: 3.27%	
CCOC(=O)c1nnn(-c2nonc2N)c1CS(=O)(=O)c1ccccc1		inconclusive [activator, partial curve, poor fit]
